Test results as given in patent US20100204090A1, “USE OF A PEPTIDE AS A THERAPEUTIC AGENT” (priority 2007, published 2010).
Bridge positions count the residues as written; N and C are the ends. Peptide text beside a SMILES is read from it.

Tested on: HIV-1IIIB
Test: HIV-1 antiviral assay (CPE reduction, MTS) in CEM-SS cells
Assay type: cell-based
Conditions: peptide 10 micrograms per ml, MOI approximately 0.01, 6 days post-infection

CC[C@H](C)[C@@H]1NC(=O)CNC(=O)[C@H](CCCNC(=N)N)NC(=O)CNC(=O)[C@@H]2CSSC[C@H](NC1=O)C(=O)N[C@@H](CCCNC(=N)N)C(=O)N[C@H]1CSSC[C@H](NC(=O)[C@H](CCCNC(=N)N)NC(=O)[C@@H]3CSSC[C@H](NC(=O)[C@H]([C@@H](C)CC)NC1=O)C(=O)NCC(=O)N[C@@H](CCCNC(=N)N)C(=O)NCC(=O)N[C@@H]([C@@H](C)CC)C(=O)N3)C(=O)N[C@@H]([C@@H](C)CC)C(=O)N2 [Retrocyclin-1] (cyclo(GICRCICGRGICRCICGR); disulfide 3-16, 5-14, 7-12 (inferred); ring closure inferred)
% CPE reduction in HIV-1 infected CEM-SS cells: 82.1%
